Reference: the supplement of paper PMC10441789
The other results are listed elsewhere or left out. Antibody binding of pooled human sera (four to six donors per pool; dilution not stated) to peptides of the Trypanosoma cruzi antigen TSSA on microarrays. Quantile-normalised fluorescence in arbitrary units, mean of duplicate arrays; higher = more binding. No active / inactive call. The uninfected pools are read here as the healthy donors of the same country. The strongest signals lie near the top of the scale (about 60,000).

What was measured:
Assay in all cases: antibody binding signal (normalised fluorescence) (arbitrary fluorescence units); higher = stronger serum antibody binding to peptide
[1] = test system: pooled sera of chronic Chagas disease patients, Argentina
Description: (§1)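 Microarray of 15-residue peptides over residues 30-55 of Trypanosoma cruzi TSSAII, each with 1 to 10 substitutions at naturally variable positions, probed with one serum pool per country.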

[2] = test system: pooled sera of chronic Chagas disease patients, Bolivia
Description: as §1

[3] = test system: pooled sera of chronic Chagas disease patients, Brazil
Description: as §1

[4] = test system: pooled sera of chronic Chagas disease patients, Colombia
Description: as §1

[5] = test system: pooled sera of chronic Chagas disease patients, Mexico
Description: as §1

[6] = test system: pooled sera of chronic Chagas disease patients, USA
Description: as §1

[7] = test system: pooled sera of uninfected people, Argentina
Description: as §1

[8] = test system: pooled sera of uninfected people, Bolivia
Description: as §1

[9] = test system: pooled sera of uninfected people, Brazil
Description: as §1

[10] = test system: pooled sera of uninfected people, Colombia
Description: as §1

[11] = test system: pooled sera of uninfected people, Mexico
Description: as §1

[12] = test system: pooled sera of uninfected people, USA
Description: as §1

Row | Sequence | antibody binding signal [1] | antibody binding signal [2] | antibody binding signal [3] | antibody binding signal [4] | antibody binding signal [5] | antibody binding signal [6] | antibody binding signal [7] | antibody binding signal [8] | antibody binding signal [9] | antibody binding signal [10] | antibody binding signal [11] | antibody binding signal [12]
1 | TDKKPAAGETPSPPG | 347 | 189 | 9730 | 235 | 200 | 2840 | 91.1 | 348 | 285 | 166 | 142 | 819
2 | SGKDKKAATGETPSQ | 1120 | 256 | 8700 | 570 | 591 | 8340 | 246 | 104 | 99.4 | 345 | 81.3 | 104
3 | GTDNKAAAGETPSQP | 563 | 3630 | 38800 | 271 | 660 | 1390 | 112 | 674 | 1520 | 143 | 126 | 78.7
4 | TPPSGKEKKAAAGET | 6570 | 509 | 632 | 904 | 21700 | 1880 | 418 | 598 | 131 | 259 | 92.6 | 136
5 | KKAATGETPSPPGAS | 344 | 313 | 8260 | 181 | 144 | 7170 | 425 | 273 | 87.8 | 288 | 70 | 499
6 | GTDKKPAAGGAPSPS | 416 | 343 | 1080 | 9520 | 567 | 1010 | 218 | 298 | 201 | 188 | 526 | 212
7 | PSGTDNKAAAGEAPS | 18800 | 11400 | 44400 | 838 | 400 | 8490 | 148 | 689 | 1160 | 226 | 193 | 175
8 | SGTENKAATGGTPSQ | 37500 | 10200 | 16900 | 728 | 671 | 2640 | 485 | 327 | 345 | 180 | 178 | 109
9 | PSGKDNKTAAGETPS | 4110 | 1830 | 5770 | 7910 | 6460 | 5660 | 369 | 416 | 244 | 281 | 160 | 179
10 | TENKPATGGAPSQSG | 33300 | 20100 | 8300 | 301 | 1170 | 3910 | 443 | 1410 | 435 | 209 | 318 | 251
11 | KEKKAATGETPSQSG | 551 | 360 | 7900 | 411 | 429 | 7410 | 232 | 91 | 107 | 287 | 124 | 124
12 | PSGKEKKAAAGEAPS | 8820 | 2160 | 9800 | 12000 | 12500 | 12300 | 442 | 284 | 103 | 173 | 94.4 | 181
13 | GTEKKAAAGETPSQP | 1060 | 1700 | 29200 | 684 | 968 | 3080 | 137 | 861 | 217 | 613 | 149 | 178
14 | GKEKKTATGETPSPS | 2190 | 433 | 542 | 1760 | 3100 | 6250 | 218 | 127 | 93.1 | 108 | 135 | 764
15 | TDNKTATGGAPSPPG | 515 | 429 | 489 | 555 | 320 | 653 | 312 | 349 | 362 | 146 | 199 | 162
16 | PPSGKEKKTAAGGAP | 1750 | 512 | 1800 | 5980 | 4570 | 2460 | 307 | 292 | 99.9 | 166 | 111 | 254
17 | EKKTATGEAPSQPGA | 13900 | 17600 | 39900 | 406 | 1130 | 18800 | 295 | 824 | 159 | 126 | 341 | 826
18 | TSSTPPSGTDKKAAA | 35200 | 3880 | 36200 | 8380 | 44700 | 5130 | 1650 | 216 | 167 | 279 | 1410 | 586
19 | STPPSGTDNKTAAGG | 35300 | 43600 | 49100 | 945 | 15200 | 25600 | 1130 | 716 | 1620 | 268 | 424 | 473
20 | SGKENKTAAGEAPSP | 3770 | 3300 | 17300 | 5470 | 4580 | 19100 | 7850 | 2830 | 311 | 537 | 638 | 190
21 | TEKKTATGETPSPPG | 648 | 579 | 1330 | 350 | 433 | 7330 | 267 | 248 | 316 | 145 | 172 | 1400
22 | TPPSGTDKKAATGEA | 20500 | 12900 | 28000 | 4910 | 37000 | 2570 | 322 | 141 | 391 | 451 | 1700 | 137
23 | TEKKPATGGAPSPPG | 2560 | 4260 | 2030 | 3500 | 1470 | 3340 | 450 | 1450 | 317 | 262 | 268 | 1020
24 | TEKKAAAGGAPSQPG | 662 | 236 | 1120 | 5640 | 663 | 1420 | 175 | 121 | 450 | 150 | 272 | 229
25 | GTDNKTATGEAPSQP | 18300 | 35400 | 43000 | 311 | 523 | 23400 | 193 | 531 | 1190 | 135 | 151 | 105

Row | Sequence | antibody binding signal [1] | antibody binding signal [2] | antibody binding signal [3] | antibody binding signal [4] | antibody binding signal [5] | antibody binding signal [6] | antibody binding signal [7] | antibody binding signal [8] | antibody binding signal [9] | antibody binding signal [10] | antibody binding signal [11] | antibody binding signal [12]
26 | SGTEKKPATGETPSP | 34500 | 27600 | 27400 | 384 | 407 | 21700 | 171 | 660 | 605 | 194 | 1670 | 702
27 | PPSGKDKKAATGGAP | 1440 | 264 | 578 | 835 | 31100 | 1230 | 254 | 379 | 89.4 | 355 | 82.9 | 158
28 | ENKPAAGEAPSQSGA | 1370 | 23800 | 34700 | 365 | 299 | 19200 | 151 | 321 | 190 | 82.9 | 93.5 | 169
29 | KDNKPATGGAPSPSG | 424 | 1590 | 2410 | 260 | 250 | 1540 | 466 | 801 | 169 | 164 | 156 | 149
30 | ENKAATGEAPSPSGA | 25700 | 43900 | 37200 | 213 | 141 | 28900 | 200 | 157 | 155 | 120 | 101 | 104
31 | KDNKPATGGTPSPSG | 443 | 241 | 356 | 231 | 400 | 397 | 275 | 513 | 233 | 206 | 182 | 144
32 | PPSGTDNKAAAGGTP | 42900 | 36800 | 45100 | 2510 | 1830 | 4660 | 507 | 823 | 2840 | 710 | 397 | 298
33 | KEKKAAAGGAPSPPG | 142 | 179 | 152 | 2310 | 200 | 515 | 99.3 | 87.6 | 119 | 98.4 | 81.2 | 91
34 | ISTPPSGTEKKTATG | 31500 | 13900 | 25700 | 475 | 11300 | 4840 | 746 | 316 | 145 | 111 | 191 | 134
35 | GKDKKTATGGAPSPS | 611 | 188 | 313 | 1200 | 745 | 777 | 193 | 96.2 | 106 | 92.3 | 90.6 | 107
36 | GTENKTATGETPSQS | 24300 | 5080 | 4770 | 3540 | 4150 | 7680 | 127 | 365 | 179 | 188 | 218 | 117
37 | KENKPATGGAPSQSG | 780 | 1790 | 4030 | 404 | 851 | 3550 | 418 | 690 | 130 | 125 | 197 | 163
38 | PSGTEKKPATGEAPS | 47900 | 43500 | 47600 | 1630 | 2120 | 40600 | 1420 | 833 | 821 | 342 | 636 | 452
39 | KDNKPAAGGAPSQPG | 189 | 215 | 12800 | 755 | 152 | 250 | 449 | 202 | 132 | 148 | 218 | 127
40 | GKDKKAAAGETPSPS | 599 | 287 | 201 | 1160 | 805 | 1270 | 158 | 141 | 96.2 | 102 | 132 | 581
41 | GTENKTAAGGTPSPS | 30900 | 441 | 491 | 5440 | 786 | 1770 | 296 | 412 | 1220 | 531 | 1800 | 177
42 | TISTPPSGTDNKAAA | 40400 | 48400 | 54700 | 1690 | 11500 | 18900 | 3670 | 1280 | 1710 | 491 | 319 | 1410
43 | GKDNKTAAGETPSPS | 2990 | 387 | 1980 | 5890 | 5740 | 4430 | 311 | 288 | 134 | 258 | 213 | 1610
44 | TDKKPATGGTPSPSG | 1100 | 996 | 600 | 3090 | 769 | 1020 | 256 | 703 | 1380 | 298 | 230 | 165
45 | ISTPPSGTEKKTAAG | 37400 | 3770 | 29400 | 412 | 10300 | 5280 | 906 | 299 | 149 | 143 | 100 | 157
46 | NKAATGGAPSPPGAS | 682 | 337 | 4430 | 578 | 318 | 1770 | 857 | 1200 | 266 | 664 | 230 | 1700
47 | TPPSGTEKKTATGET | 30200 | 11300 | 21200 | 1260 | 2250 | 1240 | 619 | 158 | 243 | 178 | 141 | 126
48 | GKENKPATGEAPSQP | 49700 | 31200 | 53100 | 6700 | 8210 | 45400 | 1500 | 889 | 354 | 214 | 400 | 178
49 | KENKTATGGTPSQSG | 258 | 347 | 294 | 671 | 284 | 390 | 366 | 103 | 146 | 105 | 219 | 146
50 | TEKKAATGGAPSPPG | 1990 | 390 | 1760 | 3110 | 2840 | 3430 | 553 | 1600 | 186 | 1150 | 299 | 260
